# Results as given in PubChem BioAssay AID1508642 (National Center for Advancing Translational Sciences (NCATS), 2021).
# The campaign covered roughly 43,000 compounds. About 200 (0.47%) were called active. Inconclusive results (about 12%) are left out. Calls follow the shape of the dose curve; as a rule, active = well fitted cell-killing curve with a large enough effect; inconclusive = small, poorly fitted or top-dose-only effect, or effect the other way; inactive = flat fitted curve, though single readings scatter. The list shows a part of the results.
# Test: Cell viability qHTS assay in S16 Pmp22-F2sN cells; also: nearly all actives have a fitted effect of over 65% in size
# Conditions: S16 Pmp22-F2sN Schwann cells (luciferase reporters placed in the Pmp22 gene) viability, CellTiter-Glo, 24 h; series mostly up to 57.5 µM; activity change, negative = cytotoxicity: at the top concentration
# How it was run: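 Luminescence from CellTiter-Glo, read by CCD camera after a 15 min room-temperature incubation, served as the viability signal. Reporter Schwann cells (S16 Pmp22-F2sN) had been treated with pin-transferred compounds for 24 h at 37C.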
# % is scaled to controls: 0 for no effect and ±100 for the full control effect.
row,Compound,"activity change, negative = cytotoxicity"
1,COC(=O)c1ccc(NC(=O)C(=O)NCCc2csc(-c3ccc(C(F)(F)F)cc3)n2)cc1,inactive: 2.87%
2,Cc1cc(Cl)ccc1OCC(=O)N1CCC(c2nc3ccccc3o2)CC1,inactive: -5.56%
3,O=C(COc1ccc(F)cc1)Nc1ccc(C(=O)OCc2cc(=O)n3nc(C4CC4)sc3n2)cc1,inactive: 8.76%
4,CCOc1ccc(NC(=O)N2CCC(c3ccc(C)cc3)C2)cc1 (configuration not stated),inactive: 0.219%
5,Cc1ccccc1NS(=O)(=O)c1ccc2[nH]c3c(c2c1)CCCCC3,inactive: -22.1%
6,CCOC(=O)c1cc(-c2ccccc2)n(CCC(=O)Nc2nc3c(C)cccc3s2)c1C,inactive: 0.885%
7,CC(C)CCOc1ccccc1Cn1c(=O)sc2ccccc21,inactive: 1.17%
8,CC(=O)N1c2c(cc(Br)cc2S(=O)(=O)N2CCN(c3ccccc3)CC2)CC1C (configuration not stated),inactive: -6.97%
9,Cc1ccc(-c2cc3c(N4CCN(c5cc(C)ccc5C)CC4)nccn3n2)cc1,inactive: 2.23%
10,CCc1ccc(-n2c(=O)c3c(C)c(C(=O)N(C)C)sc3n(Cc3ccccc3F)c2=O)cc1,inactive: 17.5%
11,Cn1c(=O)c2sccc2n2c(CCCC(=O)Nc3ccc(Oc4ccc(Cl)cc4)cc3)nnc12,inactive: -14.6%
12,Cc1ccc(-c2nnc(SCC(=O)NCc3ccccc3)nc2-c2ccc(C)cc2)cc1,inactive: -1.59%
13,CNS(=O)(=O)c1cc(-c2nnc(Nc3cc(C)ccc3C)c3ccccc23)ccc1C,inactive: -24.8%
14,CCOC(=O)c1cnc2ccccc2c1Nc1cccc(OC)c1,inactive: -17.1%
15,Cc1cc2c(cc3c(SCC(=O)Nc4cccc(Cl)c4C)nnc(C)n32)o1,inactive: 4.42%
16,CCc1ccc(C(=O)NC(Cc2c[nH]c3ccccc23)C(=O)OCC(=O)c2ccc(Br)cc2)cc1 (configuration not stated),inactive: 8.68%
17,O=c1c2sccc2n(Cc2cc(=O)n3ccccc3n2)c(=O)n1-c1cccc(C(F)(F)F)c1,inactive: 10.7%
18,Cc1ccc2oc(-c3cccc(NC(=O)c4sc5c([N+](=O)[O-])cccc5c4Cl)c3)nc2c1,inactive: 4.43%
19,Cc1cnc(=O)[nH]c1SCC(=O)Nc1nc2ccccc2s1,inactive: -0.783%
20,CCOc1ccc(CCNC(=O)c2c(C)oc3ncn(C)c(=O)c23)cc1,inactive: 4.55%
21,Cc1cc(-c2ccc(C)c(S(=O)(=O)Nc3cccc(C#N)c3)c2)on1,inactive: -2.33%
22,O=C(Cn1ccc2cc(S(=O)(=O)N3CCCCCC3)ccc21)NCCc1ccc(Cl)cc1,inactive: -16.5%
23,Cc1cccc(C(=O)Nc2ccc(OCc3cc(=O)n4ccsc4n3)cc2)c1,inactive: 13.4%
24,CCN(CC)S(=O)(=O)c1ccc2c(c1)N(CC(=O)N1CCN(c3ccc(Cl)cc3)CC1)C(=O)CO2,inactive: -18.3%

row,Compound,"activity change, negative = cytotoxicity"
1,O=C(NC1CCCCCC1)C1c2ccccc2C(=O)N1Cc1ccccc1Cl (configuration not stated),inactive: 2.57%
2,CC(C)OC(=O)c1cccnc1SCC(=O)Nc1ccc(C(F)(F)F)cc1Cl,inactive: 3.92%
3,CCN1CCN(C(=O)c2ccc3c(c2)N(Cc2ccccc2F)C(=O)c2ccccc2S3=O)CC1 (configuration not stated),inactive: 14.7%
4,Cc1ccc(-n2c3c(cc(C(=O)Nc4cccc(Cl)c4)c2=O)C(=O)CC(C)(C)C3)cc1,inactive: 0.664%
5,Cc1ccc(Cl)cc1N1CCN(C(=O)CCCCCn2c(=O)[nH]c3ccccc3c2=O)CC1,inactive: -0.718%
6,CCOc1ccccc1-c1nc(SCC(=O)c2ccc(OC)c(Br)c2)n[nH]1,inactive: 13.5%
7,CCc1ccc(NC(=O)C2CCCN(S(=O)(=O)c3c(C)noc3/C=C/N(C)C)C2)cc1 (configuration not stated),inactive: -0.327%
8,CCOc1ccc(-c2cc(-c3nc(-c4ccc(C)cc4)no3)[nH]n2)cc1,inactive: -12.1%
9,CC(=O)c1cccc(NC(=O)C(C)n2c(=O)cc(-c3ccccc3)c3c(C)nn(C)c32)c1 (configuration not stated),inactive: -20%
10,COc1cccc(CNC(=O)c2ccc(NC(=O)N3CCCCc4ccccc43)cc2)c1OC,inactive: 4.7%
11,CCOC(=O)C1CCN(C(=O)CSc2n[nH]c(-c3ccc(F)cc3)n2)CC1,inactive: 5.85%
12,COc1cccc(CNC(=O)c2c(C)oc3nc(C)nc(N4CCOCC4)c23)c1,inactive: 4.26%
13,CCc1cccc(C)c1NS(=O)(=O)c1c(C)nc2sccn2c1=O,inactive: 18.7%
14,O=C(Cn1c(=O)oc2cc(S(=O)(=O)N3CCCC3)ccc21)NCc1ccc(F)cc1,inactive: -14.7%
15,CCN1C(=O)c2ccccc2S(=O)(=O)c2ccc(C(=O)NCc3ccccc3Cl)cc21,inactive: -3.71%
16,COC(=O)CSc1ncc2c(n1)-c1ccccc1N(Cc1cccc(F)c1)S2(=O)=O,inactive: -1.36%
17,Cc1nc2c(-c3ccc(F)cc3)c(C)nn2c(C)c1CCC(=O)N1CCN(c2ccc(F)cc2)CC1,inactive: -0.325%
18,Cc1cccc(CCNC(=O)c2ccc3c(c2)nc2n3CCCCC2)c1,inactive: -2.68%
19,Cc1oc(-c2cccc(Cl)c2)nc1CSc1nnc(C)n2c1cc1occc12,inactive: -0.648%
20,COC(=O)c1c(NC(=O)c2nc(SC)ncc2Cl)sc2c1CCCC2,inactive: 5.75%
21,CC(=O)NCc1nc2cccnc2n1Cc1ccccc1,inactive: 4.14%
22,COc1ccccc1N1CCN(C(=O)Cn2cnc3sc(C)c(S(=O)(=O)N4CCC(C)CC4)c3c2=O)CC1,inactive: 0.621%
23,CCc1cccc(C)c1NC(=O)Cn1c(=O)n(-c2cccc(C)c2)c(=O)c2c1c1cc(C)ccc1n2C,inactive: -0.818%
